# Assay results taken from the BET-seq Pho4 binding data (Le et al. 2018).
# Some of the results follow. Values were computed here from the reads of four pooled replicates and scatter widely.
# Target: T1, Pho4 (S. cerevisiae) (UniProt P07270)
# T1 sequence: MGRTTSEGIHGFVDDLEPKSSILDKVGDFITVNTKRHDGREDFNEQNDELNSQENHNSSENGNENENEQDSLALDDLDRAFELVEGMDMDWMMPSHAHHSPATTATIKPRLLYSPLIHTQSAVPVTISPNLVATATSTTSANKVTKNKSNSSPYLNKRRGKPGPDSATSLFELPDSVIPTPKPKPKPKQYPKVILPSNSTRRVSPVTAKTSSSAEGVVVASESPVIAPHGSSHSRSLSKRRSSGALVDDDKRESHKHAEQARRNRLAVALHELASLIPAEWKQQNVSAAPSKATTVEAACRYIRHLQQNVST
# Experiment: relative binding free energy (BET-seq); higher = weaker binding
# Settings: reference: library average
row,Sequence,relative binding free energy [kcal/mol]
1,TCATCCACGTGGGGGG,-0.09
2,GTTAGCACGTGTGAGT,-0.02
3,TGTCGCACGTGTGGAG,0.05
4,AGTAACACGTGAGGAG,0.06
5,TTTGCCACGTGATCGT,0.09
6,CATTTCACGTGGTTGG,0.11
7,AGTTACACGTGGTATG,-0.05
8,TGCTTCACGTGAGGGG,0.29
9,TAATGCACGTGTTTGC,-0.05
10,ATTGTCACGTGAAGAG,0.25
11,AAGCTCACGTGGGGTG,-0.04
12,TTTCTCACGTGTATGA,0.39
13,TAAGCCACGTGATTGT,0
14,AGTCGCACGTGGTGGG,-0.11
15,GGTTTCACGTGGCGGT,0.34
16,GTGGTCACGTGATTTC,0.24
17,TGTCGCACGTGTTGAT,-0.09
18,GTTTTCACGTGTGACT,0.24
19,AGCCTCACGTGTGTGG,0.09
20,AATGGCACGTGGGTGC,-0.15
21,AGTTTCACGTGCAAGG,0.28
22,AATTTCACGTGTTGTA,0.13
23,GGTGACACGTGAAGTT,0.47
24,TAGTGCACGTGCTGTG,-0.11
25,ATGGGCACGTGTATTT,-0.07
26,TTAAGCACGTGCGTGA,-0.23

row,Sequence,relative binding free energy [kcal/mol]
1,AGGAGCACGTGGATAT,-0.1
2,AGGGACACGTGTTGGC,0
3,TGGGTCACGTGCGGGC,-0.03
4,GGCGGCACGTGGGGTC,-0.09
5,ATTCGCACGTGAGTTG,0.17
6,AGTCTCACGTGCATGG,0.18
7,TGGGTCACGTGTTCAT,0.16
8,TGTGACACGTGGTTGA,-0.13
9,ACATTCACGTGAGGGG,0.39
10,GTCGCCACGTGAGGTG,0.23
11,TGTAACACGTGATATT,0.12
12,CGTATCACGTGGGTTA,-0.14
13,ATTGACACGTGCGGGG,-0.03
14,TTGTGCACGTGGCGTC,-0.11
15,GTAAACACGTGTTGAG,-0.08
16,TCCTTCACGTGATTTG,0.43
17,TCAGACACGTGGAGGG,-0.11
18,TTATTCACGTGGGGAA,0.15
19,TACGTCACGTGTGTCG,0.19
20,TATGCCACGTGTGTGG,-0.13
21,GGATGCACGTGATATA,0.34
22,GTGAGCACGTGGGATC,0
23,GGAGTCACGTGGGGCT,-0.01
24,CGATACACGTGGTGGG,-0.03
25,GCTAACACGTGTGGTG,0.05
26,CGTTACACGTGATATT,0.15

row,Sequence,relative binding free energy [kcal/mol]
1,GTGGACACGTGAAGAT,0.29
2,AGTTTCACGTGTACGA,0.24
3,AGAAGCACGTGTGTAT,0.06
4,AGGGTCACGTGTTAGA,0.15
5,GGCGTCACGTGTCAGG,0.2
6,ATTCACACGTGTGTAG,0.12
7,TGCCGCACGTGGGTAG,-0.25
8,GAGGCCACGTGTGGAT,0.05
9,GGCCACACGTGGGTGT,-0.21
10,TATAGCACGTGGTTAA,-0.13
11,AGGGGCACGTGCGTGG,-0.18
12,CAGGACACGTGGGTAG,-0.16
13,TGTATCACGTGAGAGG,0.34
14,GTTTACACGTGGCTTA,0.12
15,CCTGTCACGTGGGGGG,0.01
16,GTATGCACGTGAGTCA,0.19
17,TTGGGCACGTGGAACG,-0.11
18,GGACACACGTGTGTAT,0.09
19,AAGGGCACGTGTGAGG,-0.03
20,TTCAGCACGTGTTATA,0.06
21,ATGGTCACGTGAGGGA,0.31
22,TTTGTCACGTGTGACG,0.11
23,AGACTCACGTGATGGG,0.35
24,GTCCACACGTGAGGGG,0.24
25,TACGTCACGTGGGGGA,-0.14
26,GGTTCCACGTGTAAAG,0.28

row,Sequence,relative binding free energy [kcal/mol]
1,TGCGTCACGTGTATGG,0.1
2,TAGGGCACGTGCGGGA,-0.21
3,TAGAGCACGTGTGGGG,-0.1
4,TATAGCACGTGGCTAT,-0.11
5,TGGGACACGTGACGGA,0.18
6,GACTGCACGTGTGTGA,0.08
7,ACGATCACGTGGGGGT,0
8,TGATACACGTGTATGC,0.15
9,CGTGTCACGTGGGGTA,-0.11
10,CCTGGCACGTGGTAGG,-0.16
11,TAATGCACGTGTGATT,0.03
12,GGTAACACGTGTGGGA,0.1
13,TTTGACACGTGTGGAA,0.18
14,GCGTTCACGTGGATGT,0.28
15,ATGCGCACGTGTAGGA,0.02
16,TGAGGCACGTGAGAGG,0.15
17,ATTTTCACGTGAGCGT,0.31
18,GGGCACACGTGAGGAT,0.23
19,GGGCGCACGTGGTTAG,-0.07
20,TTGTACACGTGAGTTT,0.3
21,TAGTGCACGTGAATGG,0.29
22,GGGCTCACGTGGGCGT,-0.14
23,GTTGTCACGTGGCAAG,0.12
24,GTTTACACGTGTGCTA,-0.01
25,CGGTACACGTGTCTGG,0.13
26,AGTGTCACGTGAGGTG,0.29

row,Sequence,relative binding free energy [kcal/mol]
1,TGTGACACGTGAAGTA,0.2
2,TTATACACGTGAGTGA,0.27
3,GGGAACACGTGTGTTA,-0.05
4,GTGATCACGTGAGTTT,0.4
5,AGATCCACGTGGTTTT,0.11
6,TATGTCACGTGGTTGC,0.04
7,TAGTTCACGTGCTGTG,0.12
8,TGTGTCACGTGGAAAA,0.2
9,TGGCACACGTGTGGTG,0.15
10,GCAGTCACGTGTGGTG,0.05
11,TTGAGCACGTGAAGGT,0.17
12,TATTTCACGTGGGCTA,-0.05
13,AAACGCACGTGGGTTT,-0.1
14,GAGTACACGTGGCTGT,0.14
15,GGTTACACGTGTCAAT,0.28
16,TTCTTCACGTGAGGTT,0.37
17,TTAGTCACGTGCTGTT,0.14
18,TGATACACGTGTGGTC,-0.04
19,GGTCTCACGTGGTGCG,0
20,AATTTCACGTGTATGA,0.3
21,TATGGCACGTGGATCA,0.01
22,GTCATCACGTGGGGGT,0.16
23,AGGTGCACGTGATTAT,0.14
24,CGTATCACGTGTGGTC,0.25
25,TTAGCCACGTGAATTG,0.29
26,GTTGCCACGTGTGGTT,0.06

row,Sequence,relative binding free energy [kcal/mol]
1,GCTGTCACGTGGGGGG,-0.04
2,TAGGTCACGTGATGAT,0.26
3,AGGGGCACGTGCCGGG,-0.26
4,AATTGCACGTGTCGTA,-0.06
5,ATGAGCACGTGTTGGC,0.03
6,GGTGGCACGTGTGAGC,-0.11
7,GAGATCACGTGGGCGG,0.1
8,TTGGGCACGTGTAGGC,0.11
9,ATGTACACGTGATTTC,0.19
10,AACCGCACGTGGTGTG,-0.09
11,TTTCGCACGTGTCGTG,0
12,GTAGGCACGTGAATGG,0.19
13,CGTCTCACGTGTTTTT,0.2
14,CTTGGCACGTGTATTA,0.01
15,CCGGTCACGTGAAGGT,0.24
16,CGTGTCACGTGGGATA,0
17,AGGGTCACGTGATAAT,0.32
18,TAAGTCACGTGATATT,0.3
19,TGGAGCACGTGTCGGA,0.01
20,GATGTCACGTGTTCGA,0.24
21,GTTGGCACGTGAAGGA,0.29
22,AGTGTCACGTGGAGGA,0.11
23,CGTGACACGTGTAAGG,0.01
24,TTACGCACGTGGGGCA,-0.28
25,TATAACACGTGGGGTA,-0.29
26,GTGGGCACGTGGATAA,-0.03

row,Sequence,relative binding free energy [kcal/mol]
1,TGTCACACGTGTTATT,0.07
2,ACAGTCACGTGGGGTA,-0.05
3,TATGACACGTGTAGGG,0.05
4,CTGTTCACGTGTTAGG,0.22
5,GTGGACACGTGGCATT,0.11
6,GATTGCACGTGGGTAA,-0.14
7,TGCGTCACGTGTGACT,0.2
8,CTGGTCACGTGAATGA,0.36
9,TCCGGCACGTGGGGTG,-0.26
10,TGTAACACGTGTGTAA,-0.04
11,AAGTGCACGTGATTAT,0.02
12,GGTGTCACGTGCGCGC,0.09
13,GGGGGCACGTGCTGAA,-0.25
14,AGTGCCACGTGCTGTG,-0.14
15,GGCTTCACGTGATTTG,0.39
16,TGTGGCACGTGCTTCG,-0.05
17,AAGGTCACGTGCGATT,0.13
18,AATGTCACGTGGATAT,0.11
19,TGGGACACGTGGTTAC,0.06
20,ATTGGCACGTGGGACA,-0.21
21,GGCTACACGTGGGTCG,0.15
22,GCGCGCACGTGAGTGG,0.14
23,TCGGTCACGTGAACTG,0.47
24,GGTATCACGTGTCTTG,0.23
25,GAGGTCACGTGGTAGG,0.19
26,TTTAGCACGTGTCGCA,0.01

row,Sequence,relative binding free energy [kcal/mol]
1,AGGAGCACGTGAGATG,0.07
2,GGGTGCACGTGTACGA,0
3,CAGCGCACGTGGGTGG,-0.19
4,ATATTCACGTGATCGG,0.35
5,TAGGACACGTGTTCGT,-0.08
6,TAAGGCACGTGGGTAA,-0.25
7,TTTAACACGTGGTTTG,-0.06
8,GCAATCACGTGGGTGG,0.07
9,TGGATCACGTGGTCGA,0
10,CTGATCACGTGTGGGT,0.15
11,TTTCACACGTGGGGAA,0.05
12,TAGGGCACGTGGCGGG,-0.19
13,ATTTACACGTGTCGGG,0.21
14,AATAGCACGTGCTGGG,-0.14
15,GGGAACACGTGCAGTG,0.08
16,ACGGTCACGTGGGCTG,0.1
17,GATAGCACGTGCTAGT,-0.01
18,TTATTCACGTGTACAG,0.22
19,GCGACCACGTGGTTGG,0.12
20,AATATCACGTGGCTTT,0.2
21,CTGTGCACGTGAGGGC,-0.02
22,AGGTACACGTGTCGTA,0.07
23,TAGGTCACGTGGGCTC,0.01
24,TTGGTCACGTGGCATA,0.1
25,GCTTGCACGTGGTGAG,0.02
26,CGGGACACGTGTTTTT,0.21

row,Sequence,relative binding free energy [kcal/mol]
1,GTCTGCACGTGTAGGA,0.15
2,TGTGACACGTGAGCTT,0.15
3,TGATTCACGTGTGGGT,0.32
4,GTTGGCACGTGAAATG,0.17
5,AGGCACACGTGTGTGA,0.02
6,AAAGTCACGTGTATTT,0.12
7,AACATCACGTGGGTAT,0.16
8,GGTAGCACGTGCTGTT,-0.03
9,TTGTTCACGTGGCAGC,0.12
10,TGGATCACGTGTAATA,0.28
11,AAAGTCACGTGGGGGT,-0.08
12,GGAACCACGTGGGGGT,-0.19
13,TGCGCCACGTGGTTTA,-0.02
14,TAATTCACGTGTCGTG,0.1
15,AGTCTCACGTGGGGCT,-0.01
16,TGGATCACGTGTAATG,0.14
17,TTGTTCACGTGCTGGT,0.2
18,GTTAGCACGTGTTGTC,0.07
19,CTTGGCACGTGACGTA,0.09
20,GTTTTCACGTGGCGAG,0.24
21,TCTGGCACGTGTTGTT,-0.09
22,ATTTTCACGTGAGCGG,0.32
